Measured values from the supplement of paper PMC3334620.
Over roughly 33,000 sequences, “E-score (-0.5 to 0.5)” has its median near -0.012; the highest 2% begin near 0.29. This is one part of the list.

Biological target: T1, Ybr033w (UniProt P38073)
T1 sequence: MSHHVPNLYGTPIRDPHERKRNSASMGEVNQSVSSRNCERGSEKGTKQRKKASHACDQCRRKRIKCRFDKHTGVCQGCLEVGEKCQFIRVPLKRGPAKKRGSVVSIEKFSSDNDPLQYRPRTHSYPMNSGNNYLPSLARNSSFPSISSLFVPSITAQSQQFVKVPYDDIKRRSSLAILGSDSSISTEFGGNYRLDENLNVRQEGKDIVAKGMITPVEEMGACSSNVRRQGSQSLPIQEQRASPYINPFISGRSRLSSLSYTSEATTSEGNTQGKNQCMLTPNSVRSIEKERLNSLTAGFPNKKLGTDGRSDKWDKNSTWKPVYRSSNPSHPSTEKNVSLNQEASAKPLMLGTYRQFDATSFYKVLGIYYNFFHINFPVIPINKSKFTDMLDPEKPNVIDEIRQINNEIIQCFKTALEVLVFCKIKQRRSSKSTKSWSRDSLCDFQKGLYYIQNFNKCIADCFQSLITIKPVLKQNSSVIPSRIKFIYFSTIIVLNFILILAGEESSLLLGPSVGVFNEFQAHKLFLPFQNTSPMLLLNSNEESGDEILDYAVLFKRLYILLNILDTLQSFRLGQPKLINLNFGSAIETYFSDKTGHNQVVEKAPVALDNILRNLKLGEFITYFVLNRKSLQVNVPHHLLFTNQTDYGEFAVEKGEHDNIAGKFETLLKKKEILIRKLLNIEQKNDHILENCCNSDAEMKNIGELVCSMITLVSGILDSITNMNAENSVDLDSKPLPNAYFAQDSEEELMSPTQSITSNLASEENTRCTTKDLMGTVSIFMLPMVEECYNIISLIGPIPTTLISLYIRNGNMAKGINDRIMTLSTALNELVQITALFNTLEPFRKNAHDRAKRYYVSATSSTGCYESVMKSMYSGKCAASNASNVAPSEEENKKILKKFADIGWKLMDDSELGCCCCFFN
Experiment: PBM E-score (8-mer binding enrichment) (E-score (-0.5 to 0.5)); higher = stronger / more preferred TF binding; most listed sequences are background and not binding sites
Details: protein concentration: 200 nM; construct: GST-full length
Procedure, shortened: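 Universal all-10-mer Agilent arrays, fresh or stripped once, were converted to double-stranded form by primer extension. GST-tagged yeast transcription factors from PURExpress in vitro transcription/translation, full-length or DNA-binding domain only, were applied at about 100-200 nM and detected with fluorescent anti-GST. After masliner normalisation, the Universal PBM Analysis Suite scored each ungapped eight-base word together with its reverse complement by E-score.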

Sequence	PBM E-score
TACACTGA	-0.0494
CACCTATA	0.0106
AGACGTCG	-0.119
GACGGTAA	-0.139
ACAAAGGA	0.0792
CAATTAGG	0.0673
CTCCAATA	0.164
ATCGGCCG	-0.104
ATAGAGAA	0.167
CCCGATGA	0.037
TATGGCGA	-0.168
ACAGGCAC	-0.222
CAGTCAAA	0.113
ACTCTGAA	0.1
AATACCGA	-0.0395
CTAATCGA	0.0895
CGTGACTA	0.137
CAATGCAG	-0.0246
CTTACAGA	-0.125
AGCGCAGC	-0.189
AGATAAGA	0.154
AGTTAACC	0.0309
AGGAGCAT	0.00681
AATACATT	0.218
CGAGACGC	-0.00578

Sequence	PBM E-score
CGCATAGA	0.13
CACTTGAA	0.166
TCTTAACA	0.0312
AAACGCTT	0.0762
TCGGGTCA	-0.0281
CGCTATAA	0.127
AAGCGTGT	-0.18
AGTTGTTA	0.174
ATCCGCCG	0.142
AGCCAGTG	-0.331
AACACTCT	0.12
CCCTGCGG	-0.312
AAAAGTGG	0.101
ACAATGTC	0.125
AGTACTAT	0.123
CCAAATGC	0.0718
ACTATGCC	0.0672
ATTACTCA	0.296
ATTGAATG	0.13
GACCGATC	-0.153
GTGTTGAA	-0.0491
AAGGTCCA	-0.171
GGGCCCCA	-0.404
CATAGGTC	-0.0418
AGAAGCCC	-0.0493

Sequence	PBM E-score
CGCAGACG	-0.0446
AGTCCTCA	0.0412
ATCCTGCA	0.0162
CAAGTACG	-0.00672
CGCTTAAC	0.0526
CAGACGAG	-0.108
CCGCGCAG	0.0791
CCGTATCG	-0.203
GGGCCACA	-0.162
ATTCGCGC	0.102
CCGTCGTC	-0.243
AGCTTGAC	-0.152
CCCCCTTA	-0.369
GAATCACA	-0.0141
AGTGACAC	-0.0769
AATCTACA	0.254
CCCTACTC	-0.0594
AGATACCG	0.0217
ACGTAGGC	-0.163
GGCGTTAC	-0.0878
ACCTTAGG	-0.262
CCGTCACA	-0.222
TACTTTCA	0.147
ACGAAGGG	-0.163
CTTACATA	0.173

Sequence	PBM E-score
CAATCGTC	0.06
AACCTATC	0.02
AAAGCTCT	-0.262
AGCGGAGG	-0.252
CTTGGCTC	-0.146
GGAATCGA	-0.0596
AACATCAC	0.0076
TTACAGAA	0.113
GTATCACA	0.0793
GAACAAAC	0.345
AGTCGTGG	-0.0106
ATACACAC	0.106
TGCGTTAA	0.0117
CAAAGGGA	-0.0104
AGCACGTC	-0.137
AGTACCAA	0.223
CCGGGCCC	-0.214
ACGGCGGA	-0.127
CACGGTTA	0.122
CAAATTCC	0.16
CCATAGAA	-0.0319
AGCCGATA	-0.21
GGTCTGAA	0.0775
CTTGACTC	-0.0933
ATGAGGCC	-0.317

Sequence	PBM E-score
ACTTACGG	0.168
AAATGGCC	-0.249
ACAGACGG	-0.0903
GCTGTGGA	-0.0604
TTGGTAAA	0.214
GAATCGCC	-0.138
CCCGTGAA	-0.0743
AGGCTTCC	-0.067
AGGAGGCA	-0.135
CGGATGTA	0.0327
TGATCTAA	0.113
GTAGAAAA	0.263
TATAATCA	0.224
CAGGACAC	-0.139
ATCAACGA	0.138
AAATATAT	0.339
AACAACCG	0.0533
CGCAAAAA	0.225
CAAGAATC	0.138
TGCTGACA	0.0435
GCCAAGTA	-0.197
CGCTACTA	0.218
ATTCGTGA	0.0297
GCACGAAA	0.132
GCGCTGTA	-0.229

Sequence	PBM E-score
AACACCCA	-0.139
ACATTGCG	0.0729
ATCATATC	0.176
GACAATGA	-0.0921
GCAGCCGA	-0.0905
GAGTGCCA	-0.244
ATAGAGAT	0.203
GGTCTTCA	-0.245
CAAGCCGA	0.0944
AAATGTAT	0.263
AAGCACAG	0.028
CAGATGTA	-0.155
AACATTAT	0.233
GGGGATAA	0.0499
AACAGTCG	-0.0501
AAAGCAAC	0.0832
TCTAGCCA	0.0668
ACTCCGGG	0.0652
CCCTTCGC	-0.251
ACAGTATG	-0.082
CACTTCCA	-0.0205
AGCGCCTC	-0.211
AGTCCACA	-0.0565
ACCCCACT	-0.0303
CATATAAC	0.0232

Sequence	PBM E-score
CGGGTTCA	-0.104
CTGACGGC	-0.144
AATTACGC	0.00358
ATCACAGA	0.139
AGGCAAAA	0.222
AGCCAGAT	0.0466
GGAACTAA	0.108
AACGGACC	-0.0412
ACCGAGAG	-0.0831
GCCGCTTA	-0.00141
GGGCGTGA	-0.157
CCGAAGAG	-0.0592
GTCGACAA	-0.159
TATACAAA	0.356
ACAAGTTC	0.201
CCAATGAG	-0.247
AGCTGTCG	-0.125
ATATGTCC	0.00162
ACCCCCAT	-0.362
CCGAACCC	-0.361
CGTGGGAG	-0.0549
CCGCACTA	0.117
